# Results from the supplement of paper PMC10037445.
# Several values for one entry are separate records, joined by “and”; a condition that tells them apart may be missing. Identical values can stand only once. In all, about 2,900 compounds were measured (“NF-kB SEAP reporter activity, fold change vs agonist alone”: median about 0.99, highest 2% from about 2.6 on). This is one part of the list.
# Assays:
# [1] = test system: RAW-Dual; experiment: NF-kB SEAP reporter activity, fold change vs agonist alone; cytotoxicity flag (confluency mask): not cytotoxic; higher = enhanced NF-kB activity
# How it was run: (§1)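 Cytotoxic wells were those whose IncuCyte confluency was below 70% of agonist controls in both mask sets. The cells were RAW-Dual macrophages at 50,000 cells/well in DMEM on 384-well plates, dosed with 50 nL of library stock by pin tool, stimulated with a PRR agonist 1 h later, and kept at 37 °C, 5% CO2 for 20 hours. IRF and NF-κB reporter activity, as fold change over agonist-alone wells, came from supernatant read by QuantiLuc luminescence and QuantiBlue absorbance, respectively.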
# [2] = test system: RAW-Dual; experiment: NF-kB SEAP reporter activity, fold change vs agonist alone; higher = enhanced NF-kB activity
# How it was run: as §1
# [3] = test system: RAW-Dual; experiment: NF-kB SEAP reporter activity, fold change vs agonist alone; cytotoxicity flag (confluency mask): cytotoxic (confluency <70% of control); higher = enhanced NF-kB activity
# How it was run: as §1
# [4] = agonist: ODN 1826 (TLR9) 0.5 ug/mL
# [5] = agonist: Pam2CSK4 (TLR2/6) 0.1 ug/mL
# [6] = agonist: Pam3CSK4 (TLR2/1) 0.1 ug/mL
# [7] = library stock concentration (final ~1000-fold dilution): 10 mM water, cytotoxicity flag (confluency mask): not cytotoxic, agonist: Imiquimod (TLR7) […]
# [8] = library stock concentration (final ~1000-fold dilution): 10 mM water, cytotoxicity flag (confluency mask): not cytotoxic, agonist: MPLA (TLR4) […]
# [9] = library stock concentration (final ~1000-fold dilution): 10 mM, cytotoxicity flag (confluency mask): not cytotoxic, agonist: Imiquimod (TLR7) […]
# [10] = library stock concentration (final ~1000-fold dilution): 10 mM, cytotoxicity flag (confluency mask): not cytotoxic, agonist: MPLA (TLR4) […]
smiles,measurement,setting,value
C=C1CC[C@@H]2[C@](C)(CO)[C@H](O)CC[C@@]2(C)[C@@H]1/C=C/C1=CCOC1=O (library stock concentration (final ~1000-fold dilution): 10 mM),NF-kB SEAP reporter activity,[1]; agonist: LPS (TLR4) 0.1 ug/mL,0.755
same,NF-kB SEAP reporter activity,[1]; [4],0.721
same,NF-kB SEAP reporter activity,[1]; [5],0.5
same,NF-kB SEAP reporter activity,[1]; [6],0.597
O=C(O)P(=O)(O)O,NF-kB SEAP reporter activity,[2]; [7],0.97
same,NF-kB SEAP reporter activity,[2]; [8],1.04
O=C(O)P(=O)(O)O (library stock concentration (final ~1000-fold dilution): 10 mM water),NF-kB SEAP reporter activity,[1]; agonist: LPS (TLR4) 0.1 ug/mL,1.18
same,NF-kB SEAP reporter activity,[1]; [4],1.18
same,NF-kB SEAP reporter activity,[1]; [5],1.22
same,NF-kB SEAP reporter activity,[1]; [6],1.08
CC(C)(C)NS(=O)(=O)c1cncc(-c2cc(F)c3nc(N)nn3c2)c1 (library stock concentration (final ~1000-fold dilution): 10 mM),NF-kB SEAP reporter activity,[1]; agonist: LPS (TLR4) 0.1 ug/mL,0.922
same,NF-kB SEAP reporter activity,[1]; [4],1.09
same,NF-kB SEAP reporter activity,[1]; [5],0.994
same,NF-kB SEAP reporter activity,[1]; [6],1.03
CC(C)(C)NS(=O)(=O)c1cncc(-c2cc(F)c3nc(N)nn3c2)c1,NF-kB SEAP reporter activity,[2]; [9],0.918
same,NF-kB SEAP reporter activity,[2]; [10],1.11
O=C1c2c(O)cc(O)cc2OC(c2cc(O)c(O)c(O)c2)C1O (centres undefined) (library stock concentration (final ~1000-fold dilution): 10 mM),NF-kB SEAP reporter activity,[1]; agonist: LPS (TLR4) 0.1 ug/mL,0.954
same,NF-kB SEAP reporter activity,[1]; [4],1.02
same,NF-kB SEAP reporter activity,[1]; [5],0.798
same,NF-kB SEAP reporter activity,[1]; [6],0.657
O=C1c2c(O)cc(O)cc2OC(c2cc(O)c(O)c(O)c2)C1O (centres undefined),NF-kB SEAP reporter activity,[2]; [9],0.946
same,NF-kB SEAP reporter activity,[2]; [10],1.07
COc1cc(OC)cc(N(CCNC(C)C)c2ccc3ncc(-c4cnn(C)c4)nc3c2)c1 (library stock concentration (final ~1000-fold dilution): 10 mM),NF-kB SEAP reporter activity,[3]; agonist: LPS (TLR4) 0.1 ug/mL,3.64
same,NF-kB SEAP reporter activity,[3]; [4],0.427
same,NF-kB SEAP reporter activity,[3]; [5],1.06
same,NF-kB SEAP reporter activity,[3]; [6],1.57
COc1cc(OC)cc(N(CCNC(C)C)c2ccc3ncc(-c4cnn(C)c4)nc3c2)c1,NF-kB SEAP reporter activity,"[2]; library stock concentration (final ~1000-fold dilution): 10 mM, cytotoxicity flag (confluency mask): cytotoxic (confluency <70% of control), agonist: Imiquimod (TLR7) […]",1.76
same,NF-kB SEAP reporter activity,"[2]; library stock concentration (final ~1000-fold dilution): 10 mM, cytotoxicity flag (confluency mask): cytotoxic (confluency <70% of control), agonist: MPLA (TLR4) […]",2.21
O=c1nc(N2CCOCC2)oc2c(-c3cccc4c3sc3ccccc34)cccc12,NF-kB SEAP reporter activity,[2]; [9],1.1
same,NF-kB SEAP reporter activity,[2]; [10],1.85
O=c1nc(N2CCOCC2)oc2c(-c3cccc4c3sc3ccccc34)cccc12 (library stock concentration (final ~1000-fold dilution): 10 mM),NF-kB SEAP reporter activity,[1]; agonist: LPS (TLR4) 0.1 ug/mL,3.45
same,NF-kB SEAP reporter activity,[1]; [4],1.08
same,NF-kB SEAP reporter activity,[1]; [5],0.718
same,NF-kB SEAP reporter activity,[1]; [6],1.38
CN(C)CC(c1ccc(O)cc1)C1(O)CCCCC1.O=C(O)CCC(=O)O (centres undefined),NF-kB SEAP reporter activity,[2]; [9],0.88
same,NF-kB SEAP reporter activity,[2]; [10],0.989
CN(C)CC(c1ccc(O)cc1)C1(O)CCCCC1.O=C(O)CCC(=O)O (centres undefined) (library stock concentration (final ~1000-fold dilution): 10 mM),NF-kB SEAP reporter activity,[1]; agonist: LPS (TLR4) 0.1 ug/mL,0.894
same,NF-kB SEAP reporter activity,[1]; [4],0.874
same,NF-kB SEAP reporter activity,[1]; [5],1.02
same,NF-kB SEAP reporter activity,[1]; [6],0.933
O=C(O)CSc1cc(NS(=O)(=O)c2ccc(Br)cc2)c2ccccc2c1O (library stock concentration (final ~1000-fold dilution): 10 mM),NF-kB SEAP reporter activity,[1]; agonist: LPS (TLR4) 0.1 ug/mL,3.16
same,NF-kB SEAP reporter activity,[1]; [4],1.31
same,NF-kB SEAP reporter activity,[1]; [5],1.24
same,NF-kB SEAP reporter activity,[1]; [6],2.31
O=C(O)CSc1cc(NS(=O)(=O)c2ccc(Br)cc2)c2ccccc2c1O,NF-kB SEAP reporter activity,[2]; [9],1.12
same,NF-kB SEAP reporter activity,[2]; [10],2.21
Cc1cc(C(=O)O)n[nH]1,NF-kB SEAP reporter activity,[2]; [10],1
Cc1cc(C(=O)O)n[nH]1 (library stock concentration (final ~1000-fold dilution): 10 mM),NF-kB SEAP reporter activity,[1]; agonist: LPS (TLR4) 0.1 ug/mL,1.11
same,NF-kB SEAP reporter activity,[1]; [4],0.99
same,NF-kB SEAP reporter activity,[1]; [5],0.961
same,NF-kB SEAP reporter activity,[1]; [6],0.917
C#CC1(O)CCC2C3CCC4=Cc5oncc5CC4(C)C3CCC21C (centres undefined) (library stock concentration (final ~1000-fold dilution): 10 mM),NF-kB SEAP reporter activity,[1]; agonist: LPS (TLR4) 0.1 ug/mL,0.969
same,NF-kB SEAP reporter activity,[1]; [4],0.917
same,NF-kB SEAP reporter activity,[1]; [5],0.616
same,NF-kB SEAP reporter activity,[1]; [6],0.595
C#CC1(O)CCC2C3CCC4=Cc5oncc5CC4(C)C3CCC21C (centres undefined),NF-kB SEAP reporter activity,[2]; [9],0.903
same,NF-kB SEAP reporter activity,[2]; [10],1.27
NCCCCC(NC(CCc1ccccc1)C(=O)O)C(=O)N1CCCC1C(=O)O (centres undefined) (library stock concentration (final ~1000-fold dilution): 10 mM water),NF-kB SEAP reporter activity,[1]; agonist: LPS (TLR4) 0.1 ug/mL,1.18
same,NF-kB SEAP reporter activity,[1]; [4],1.14
same,NF-kB SEAP reporter activity,[1]; [5],1.14
same,NF-kB SEAP reporter activity,[1]; [6],1.2
NCCCCC(NC(CCc1ccccc1)C(=O)O)C(=O)N1CCCC1C(=O)O (centres undefined),NF-kB SEAP reporter activity,[2]; [7],0.939
same,NF-kB SEAP reporter activity,[2]; [8],1.06
Nc1ccc(O)c(C(=O)O)c1 (library stock concentration (final ~1000-fold dilution): 10 mM),NF-kB SEAP reporter activity,[1]; agonist: LPS (TLR4) 0.1 ug/mL,1.04 and 1.16
same,NF-kB SEAP reporter activity,[1]; [4],0.938 and 1.12
same,NF-kB SEAP reporter activity,[1]; [5],1.06 and 1.1
same,NF-kB SEAP reporter activity,[1]; [6],1.08 and 0.987
COc1cc(N2CCN(C)CC2)ccc1Nc1nccc(-c2cn(C)c3cnccc23)n1,NF-kB SEAP reporter activity,[2]; [9],0.285
same,NF-kB SEAP reporter activity,[2]; [10],1.58
COc1cc(N2CCN(C)CC2)ccc1Nc1nccc(-c2cn(C)c3cnccc23)n1 (library stock concentration (final ~1000-fold dilution): 10 mM),NF-kB SEAP reporter activity,[1]; agonist: LPS (TLR4) 0.1 ug/mL,1.02
same,NF-kB SEAP reporter activity,[1]; [4],0.192
same,NF-kB SEAP reporter activity,[1]; [5],1.14
same,NF-kB SEAP reporter activity,[1]; [6],1.44
COC12C(COC(N)=O)C3=C(C(=O)C(C)=C(N)C3=O)N1CC1NC12 (centres undefined),NF-kB SEAP reporter activity,[2]; [9],1.82
same,NF-kB SEAP reporter activity,[2]; [10],1.79
COC12C(COC(N)=O)C3=C(C(=O)C(C)=C(N)C3=O)N1CC1NC12 (centres undefined) (library stock concentration (final ~1000-fold dilution): 10 mM),NF-kB SEAP reporter activity,[1]; agonist: LPS (TLR4) 0.1 ug/mL,2.79
same,NF-kB SEAP reporter activity,[1]; [4],2.71
same,NF-kB SEAP reporter activity,[1]; [5],1.89
same,NF-kB SEAP reporter activity,[1]; [6],3.31
